Assay results taken from paper PMC4336329 (PLoS ONE, 2015).
The campaign covered roughly 310,000 compounds. About 14,000 (4.5%) showed an effect of 50% or more. The effect is printed as a negative number. Some of the results follow.

What follows are compounds tested against human ether-à-go-go-related gene (hERG) potassium channel (human, UniProt Q12809) (assay: primary screen, population patch clamp on CHO cells stably expressing hERG).
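Further: peak tail current of the secondary pulse compared with the same well before compound.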

Chain of human ether-à-go-go-related gene (hERG) potassium channel (Q12809 whole entry, looked up): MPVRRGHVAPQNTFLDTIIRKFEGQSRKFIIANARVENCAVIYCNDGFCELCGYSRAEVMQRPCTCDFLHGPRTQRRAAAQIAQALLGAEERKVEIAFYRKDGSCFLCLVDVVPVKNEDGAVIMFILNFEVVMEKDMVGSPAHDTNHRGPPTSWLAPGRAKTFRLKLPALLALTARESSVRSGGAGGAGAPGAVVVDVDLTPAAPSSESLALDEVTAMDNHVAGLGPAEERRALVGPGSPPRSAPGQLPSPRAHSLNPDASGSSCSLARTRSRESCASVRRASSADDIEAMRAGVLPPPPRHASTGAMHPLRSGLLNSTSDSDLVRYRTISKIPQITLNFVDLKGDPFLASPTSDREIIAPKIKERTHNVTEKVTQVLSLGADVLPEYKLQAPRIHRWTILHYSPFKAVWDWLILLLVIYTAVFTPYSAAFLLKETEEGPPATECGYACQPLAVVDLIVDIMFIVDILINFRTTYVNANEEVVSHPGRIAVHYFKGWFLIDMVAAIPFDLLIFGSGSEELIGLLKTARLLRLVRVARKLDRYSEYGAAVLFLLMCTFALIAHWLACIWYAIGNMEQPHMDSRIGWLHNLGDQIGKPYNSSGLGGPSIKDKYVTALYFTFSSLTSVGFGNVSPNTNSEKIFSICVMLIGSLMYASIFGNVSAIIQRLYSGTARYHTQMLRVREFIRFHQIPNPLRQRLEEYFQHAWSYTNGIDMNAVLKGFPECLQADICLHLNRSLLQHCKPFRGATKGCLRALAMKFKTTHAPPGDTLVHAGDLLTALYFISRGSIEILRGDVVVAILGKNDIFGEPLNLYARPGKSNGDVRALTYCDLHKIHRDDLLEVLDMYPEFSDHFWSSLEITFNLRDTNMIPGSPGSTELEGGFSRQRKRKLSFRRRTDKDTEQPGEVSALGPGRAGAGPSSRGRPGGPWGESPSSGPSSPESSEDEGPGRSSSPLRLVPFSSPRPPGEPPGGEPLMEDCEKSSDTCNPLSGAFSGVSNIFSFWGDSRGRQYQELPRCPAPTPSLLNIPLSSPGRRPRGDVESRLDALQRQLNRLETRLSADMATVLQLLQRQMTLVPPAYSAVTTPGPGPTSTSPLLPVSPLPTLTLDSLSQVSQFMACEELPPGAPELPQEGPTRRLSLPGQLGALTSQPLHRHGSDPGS

Structure (SMILES)	hERG current change (%, negative = inhibition) at 10uM [%]
COc1cc(C(C(=O)NC2CCCC2)N(Cc2ccccc2)C(=O)c2snc(C(N)=O)c2N)ccc1O (stereo not shown)	-0.527
CC(C)c1ccc(CNc2ncccn2)cc1.O=C(O)C(=O)O	8.67
CC(=O)N1CCN(S(=O)(=O)c2cccc(C(=O)Nc3ccc4c(c3)OCO4)c2)CC1	-12.2
COc1ccc(-c2cc3c(=O)n(CC(=O)NCCCN4CCN(Cc5ccccc5)CC4)ncn3n2)cc1	-54.8
Cc1cc([N+](=O)[O-])nn1Cn1nc([N+](=O)[O-])cc1C	-27.3
Cc1cc(Br)c(NC(=O)CCNC(=O)OCc2ccccc2)cc1C	2.98
COc1ccc(CCNC(=O)Cn2ccc3c(OC)cccc3c2=O)cc1OC	-8.6
O=C(COC(=O)c1cc(S(=O)(=O)N2CCOCC2)ccc1Cl)NCc1ccco1	-24.6
O=C(c1ccc(Cl)c(S(=O)(=O)N2CCCCC2)c1)N1CCCC(C(F)(F)F)C1 (stereo not shown)	-31.8
CCOc1ccc(N(CC)C(=O)CCNC(=O)Cn2ccc3ccccc3c2=O)cc1	5.61
Cc1ccc(S(=O)(=O)N2CCOCC2)cc1NC(=O)COC(=O)CCOc1ccc(C(C)(C)C)cc1	-9.54
CCn1nnnc1-c1ccc(OC)c(S(=O)(=O)Nc2ccc(OC)cc2)c1	-6.08
COc1ccc(C(=O)NCC(C)(C)CNC(=O)c2ccc(OC)cc2)cc1	-14.5
CCOC(=O)N1CCC(N(CCN(C)C)C(=S)Nc2cccc(OC)c2)CC1	-2.12
COC(=O)c1cc(S(=O)(=O)NCc2ccc(Br)cc2)c[nH]1	-16.1
O=C(NCCc1nc2ccccc2[nH]1)/C(=C/c1ccco1)NC(=O)c1ccccc1Br	-64.9
COc1cc(NC(=O)c2ccc(Br)cc2)c(OC)cc1NC(=O)c1ccccc1	17.9
CC(Sc1nc(-c2ccccc2)nc2c1COC(C)(C)C2)C(=O)N1CCOCC1 (stereo not shown)	-45.3
Cc1nc2c(C)cccn2c1/C(O)=C1\C(=O)C(=O)N(CCN(C)C)C1c1ccccc1 (stereo not shown)	15
CC(=O)Nc1sc(C)c(C)c1C(=O)OCC(=O)N(C)C1CCS(=O)(=O)C1 (stereo not shown)	-7.65
Cc1cccc(N(C(=O)c2csnn2)C(C(=O)NC2CCCCC2)c2ccncc2)c1 (stereo not shown)	16.8
C/C(N)=C(/C#N)C(=O)CSc1nc2ccccc2c(=O)n1Cc1ccc(C)cc1	-2.86

Structure (SMILES)	hERG current change (%, negative = inhibition) at 10uM [%]
O=C(NC1CCS(=O)(=O)C1)c1ccc2c(c1)OCO2 (stereo not shown)	13
Cc1c(C=O)c2ccccc2n1CC(=O)N1CCc2ccccc2C1	7.08
O=C(OCC(=O)N1CCN(C(=O)c2ccco2)CC1)c1sc2ccccc2c1Cl	-10.8
O=S1(=O)C=CC(Nc2cccc(Cl)c2)C1 (stereo not shown)	16.7
O=C(CCc1ccccc1)Nc1ccccc1F	6.18
COc1ccc(C(=O)c2c(C)oc3ccc(O)c(CN4CCOCC4)c23)cc1	-29.5
CC1=C(C(=O)Nc2ccccc2)C(c2ccco2)C(C#N)=C(SCC(N)=O)N1 (stereo not shown)	-3.31
N#C/C(=N\Nc1ccc(F)cc1)C(=O)C1CC1	16.7
COc1ccc(S(=O)(=O)N2CCN(C(=O)c3cc(C)oc3C)CC2)cc1OC	-4.8
O=C(CSc1ncccn1)NCc1ccc(Cl)cc1	4.02
COc1ccccc1N(Cc1cc(=O)[nH]c2ccccc12)C(=O)c1ccc([N+](=O)[O-])cc1	-28.7
CCOc1ccc(NC(=S)N(CC)Cc2ccccc2)cc1	0.19
CN(C(=O)CSc1ncc(C(F)(F)F)cc1Cl)c1c(N)n(Cc2ccccc2)c(=O)[nH]c1=O	8.25
Cc1ccc(S(=O)(=O)N(C)CC(=O)N2CCCC2)cc1	1.73
CC(C)(O)[C@@H]1CC(=O)[C@]2(C)[C@H](CC[C@@]3(C)[C@H](c4ccoc4)OC(=O)[C@H]4O[C@]432)[C@@]1(C)/C=C\C(=O)O	26.6
CCC(=O)N1c2ccc(S(=O)(=O)N3CCN(c4ccc([N+](=O)[O-])cc4)CC3)cc2CC1C (stereo not shown)	-47
COc1cccc(NC(=O)CNC(=O)c2ccc(F)cc2)c1	-6.34
COc1ccc(C)cc1NC(=O)NCc1ccc(F)cc1	-13.4
CSCCC(C(=O)OCC(=O)c1ccc(C)c(C)c1)N1C(=O)c2ccccc2C1=O (stereo not shown)	-5.42
CC(C)(C)C(=O)NC(=S)NNC(=O)C(c1ccccc1)c1ccccc1	-13
CSc1ccccc1NC(=O)Cn1nnc(-c2ccc(S(C)(=O)=O)cc2)n1	23.2
